Measured values: the supplement of paper PMC8728848
Some of the results follow.

Assays:
Assay in all cases: glycan array binding signal (z-score within array); higher = stronger binding
Conditions in all cases: glycan notation: IUPAC condensed, linker removed
[1] = molecular target: Gal(b1-3)[Fuc(a1-4)]GlcNAc(b1-3)Gal(b1-4)[Fuc(a1-3)]GlcNAc
Outline: (§1)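 The binding signal is a Z-score computed within each array. Data were drawn from 3228 arrays in the Consortium for Functional Glycomics database, restricted to those with a known protein sequence. Scores were averaged over arrays of the same protein sequence at different concentrations or buffers, and over linkers, and negative values can be taken as non-binding.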

[2] = molecular target: Gal(b1-3)[GlcNAc(b1-6)]GalNAc
Outline: as §1

[3] = molecular target: Gal(b1-3)[Neu5Ac(a2-6)]GalNAc
Outline: as §1

[4] = molecular target: Gal(b1-3)[Neu5Ac(a2-6)]GlcNAc(b1-6)Gal(b1-4)Glc
Outline: as §1

[5] = molecular target: Gal(b1-3)[Neu5Ac(b2-6)]GalNAc
Outline: as §1

[6] = molecular target: Gal(b1-4)GalNAc(a1-3)[Fuc(a1-2)]Gal(b1-4)GlcNAc
Outline: as §1

[7] = molecular target: Gal(b1-4)GalNAc(b1-3)[Fuc(a1-2)]Gal(b1-4)GlcNAc
Outline: as §1

[8] = molecular target: Gal(b1-4)Glc
Outline: as §1

[9] = molecular target: Gal(b1-4)Glc6S
Outline: as §1

[10] = molecular target: Gal(b1-4)GlcNAc
Outline: as §1

[11] = molecular target: Gal(b1-4)GlcNAc(b1-2)Man(a1-3)[Gal(b1-4)GlcNAc(b1-2)Man(a1-6)]Man(b1-4)GlcNAc(b1-4)GlcNAc
Outline: as §1

[12] = molecular target: Gal(b1-4)GlcNAc(b1-3)Gal(b1-4)Glc
Outline: as §1

[13] = molecular target: Gal(b1-4)GlcNAc(b1-3)Gal(b1-4)GlcNAc
Outline: as §1

[14] = molecular target: Gal(b1-4)GlcNAc(b1-3)Gal(b1-4)GlcNAc(b1-3)Gal(b1-4)GlcNAc
Outline: as §1

[15] = molecular target: Gal(b1-4)GlcNAc(b1-3)Gal(b1-4)[Fuc(a1-3)]GlcNAc(b1-3)Gal(b1-4)[Fuc(a1-3)]GlcNAc
Outline: as §1

[16] = molecular target: Gal(b1-4)GlcNAc(b1-3)GalNAc
Outline: as §1

[17] = molecular target: Gal(b1-4)GlcNAc(b1-3)[Gal(b1-4)GlcNAc(b1-6)]GalNAc
Outline: as §1

[18] = molecular target: Gal(b1-4)GlcNAc(b1-6)Gal(b1-4)GlcNAc(b1-6)GalNAc
Outline: as §1

[19] = molecular target: Gal(b1-4)GlcNAc(b1-6)GalNAc
Outline: as §1

[20] = molecular target: Gal(b1-4)GlcNAc(b1-6)[Gal(b1-3)]GalNAc
Outline: as §1

[21] = molecular target: Gal3S(b1-3)GalNAc
Outline: as §1

[22] = molecular target: Gal3S(b1-3)GlcNAc
Outline: as §1

[23] = molecular target: Gal3S(b1-3)[Fuc(a1-4)]GlcNAc
Outline: as §1

[24] = molecular target: Gal3S(b1-4)Glc
Outline: as §1

[25] = molecular target: Gal3S(b1-4)Glc6S
Outline: as §1

[26] = molecular target: Gal3S(b1-4)GlcNAc
Outline: as §1

[27] = molecular target: Gal3S(b1-4)GlcNAc6S
Outline: as §1

[28] = molecular target: Gal3S6S(b1-4)GlcNAc
Outline: as §1

[29] = molecular target: Gal3S6S(b1-4)GlcNAc6S
Outline: as §1

[30] = molecular target: Gal4S(b1-4)GlcNAc
Outline: as §1

[31] = molecular target: Gal4S6S(b1-4)GlcNAc
Outline: as §1

[32] = molecular target: Gal6S(b1-4)Glc
Outline: as §1

[33] = molecular target: Gal6S(b1-4)Glc6S
Outline: as §1

B1: F17eG (Escherichia coli), Q9RH92 (protein)
chain: MTNFYKVFLAVFILVCCNISHAAVSFIGSTENDVGPSQSSYSRTHAMDNLPFVYNTGYNIGYQNANVWRISGGFCVGLDGKVDLPVVGSLDGQSIYGLTEEVGLLIWMGDTNYSRGTAMSGNSWENVFSGWCVGNYVSTQGLSVHVRPVILKRNSSAQYSVQKTSIGSIRMRPYNGSSAGSVQTTVNFSLNPFTLNDTVTSCRLLTPSAVNVSLAAISAGQLPSSGDEVVAGTTSLKLQCDAGVTVWATLTDATTPSNRSDILTLTGASTATGVGLRIYKNTDSTPLKFGPDSPVKGNENQWQLSTGTETSPSVRLYVKYVNTGEGINPGTVNGISTFTFSYQ
[1]
  glycan array binding signal (z-score): -0.221
[2]
  glycan array binding signal (z-score): 4.13
[3]
  glycan array binding signal (z-score): -0.312
[4]
  glycan array binding signal (z-score): -0.318
[5]
  glycan array binding signal (z-score): -0.3
[6]
  glycan array binding signal (z-score): -0.137
[7]
  glycan array binding signal (z-score): -0.297
[8]
  glycan array binding signal (z-score): -0.307
[9]
  glycan array binding signal (z-score): -0.297
[10]
  glycan array binding signal (z-score): 0.593
[11]
  glycan array binding signal (z-score): -0.298
[12]
  glycan array binding signal (z-score): -0.133
[13]
  glycan array binding signal (z-score): -0.293
[14]
  glycan array binding signal (z-score): -0.292
[15]
  glycan array binding signal (z-score): -0.263
[16]
  glycan array binding signal (z-score): -0.312
[17]
  glycan array binding signal (z-score): -0.313
[18]
  glycan array binding signal (z-score): -0.316
[19]
  glycan array binding signal (z-score): -0.219
[20]
  glycan array binding signal (z-score): -0.31
[21]
  glycan array binding signal (z-score): -0.13
[22]
  glycan array binding signal (z-score): -0.314
[23]
  glycan array binding signal (z-score): -0.288
[24]
  glycan array binding signal (z-score): -0.145
[25]
  glycan array binding signal (z-score): -0.314
[26]
  glycan array binding signal (z-score): -0.259
[27]
  glycan array binding signal (z-score): -0.301
[28]
  glycan array binding signal (z-score): -0.31
[29]
  glycan array binding signal (z-score): 0.073
[30]
  glycan array binding signal (z-score): -0.172
[31]
  glycan array binding signal (z-score): -0.216
[32]
  glycan array binding signal (z-score): -0.291
[33]
  glycan array binding signal (z-score): -0.31
